Whole data set: some 110,000 compounds, median “z-score” near -0.1, cut for the highest 2% near 2. Some of the results follow.
What follows are molecules tested against Metabotropic glutamate receptor 8 (Rattus norvegicus) (UniProt P70579) (assay: rat mGluR8 modulators via GIRK flux, primary screen, cell-based, thallium flux, HTS (AID 488969)). Settings: HEK293 rat mGluR8, GIRK (G protein-gated inwardly rectifying potassium channel) thallium flux, FluoZin2; at 10 µM; stronger effect = higher value; submaximal glutamate (EC20) added with thallium.
UniProt P70579, sequence (P70579 whole entry, looked up): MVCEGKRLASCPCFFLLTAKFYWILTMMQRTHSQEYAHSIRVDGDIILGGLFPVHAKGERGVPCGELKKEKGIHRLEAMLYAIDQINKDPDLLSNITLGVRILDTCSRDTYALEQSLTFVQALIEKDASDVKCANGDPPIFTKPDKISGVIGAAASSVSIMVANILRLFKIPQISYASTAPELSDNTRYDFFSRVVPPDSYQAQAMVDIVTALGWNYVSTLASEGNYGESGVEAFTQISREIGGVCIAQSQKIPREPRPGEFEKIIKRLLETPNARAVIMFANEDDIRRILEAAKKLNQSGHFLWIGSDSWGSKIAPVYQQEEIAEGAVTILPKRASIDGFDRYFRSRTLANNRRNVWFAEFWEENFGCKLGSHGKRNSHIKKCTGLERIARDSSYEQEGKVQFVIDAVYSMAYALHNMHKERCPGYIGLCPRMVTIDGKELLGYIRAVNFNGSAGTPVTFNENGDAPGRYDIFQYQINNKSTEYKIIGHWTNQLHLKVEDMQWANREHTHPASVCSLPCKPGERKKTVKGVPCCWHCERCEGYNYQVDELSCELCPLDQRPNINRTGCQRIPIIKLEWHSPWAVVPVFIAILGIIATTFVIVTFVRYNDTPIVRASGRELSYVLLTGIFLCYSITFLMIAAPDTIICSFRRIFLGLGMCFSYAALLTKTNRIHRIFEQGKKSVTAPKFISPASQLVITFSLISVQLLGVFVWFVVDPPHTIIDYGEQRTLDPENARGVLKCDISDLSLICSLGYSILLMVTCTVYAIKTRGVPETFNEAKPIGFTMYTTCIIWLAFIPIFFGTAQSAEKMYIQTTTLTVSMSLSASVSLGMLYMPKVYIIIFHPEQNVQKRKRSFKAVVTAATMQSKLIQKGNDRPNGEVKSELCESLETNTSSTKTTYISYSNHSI
Molecule `Cc1ccccc1NC(=O)c1cccc2nc3ccccc3nc12` has a z-score of -0.119.
For `CC(=O)c1cccc(S(=O)(=O)NCC(c2ccco2)N2CCCCC2)c1` (stereo not given), the z-score was -0.264.
Molecule `C/C(=N/NS(=O)(=O)c1ccc(Cl)cc1)c1cccc(NC(=O)c2ccc(Cl)cc2Cl)c1` has a z-score of -0.356.
With `C=Cc1cccc(NC(=O)COc2ccccc2)c1` the z-score was 0.261.
For `COc1cc(/C=N/NC(=O)c2cccnc2)ccc1OC(=O)c1ccc2c(c1)OCO2`, the z-score was -0.0927.
With `Cc1cccc(NC(=O)Cn2c(=O)n(Cc3ccccc3)c(=O)c3c(C)c(C)sc32)c1` the z-score was -0.345.
Molecule `CC(C)(C)c1nc2sc3c(c2c(=O)o1)CCCC3` has a z-score of 0.125.
For `CCOc1ccccc1NC1=C(Cl)C(=O)N(c2ccccc2)C1=O`, the z-score was -0.39.
For `COc1ccc(O)c(/C=N/NC(=O)c2ccc(OCc3cccc(Br)c3)cc2)c1`, the z-score was -0.103.
Work on `CC1CCCC(C)N1CCNC(=O)CCn1nc(-c2ccccc2)ccc1=O` (stereo not given) yielded a z-score of -0.341.
In the case of `Oc1ccc(N=Cc2cc(Br)c(N3CCOCC3)o2)cc1`, the z-score is reported as -0.196.
For `Cc1ccc(-c2nc(-c3ccccc3)no2)c(Cl)c1`, the z-score was 0.282.
Work on `COc1ccc(C(=O)NCC(=O)n2nc(C)cc2C)cc1OC` yielded a z-score of -0.382.
`Cc1ccc(-n2ncc3c(=O)[nH]c(SC(C)C)nc32)cc1` gave a z-score of -0.689.
Work on `CCN(CC)S(=O)(=O)c1ccc2c(c1)nc(CCC(=O)OCC(=O)N1CCc3ccccc31)n2C` yielded a z-score of -1.27.
Work on `COc1ccc(C(C(=O)NC2CCCCC2)N(C(=O)c2sc(C)nc2C)c2ccc(OC)cc2)cc1` (stereo not given) yielded a z-score of -0.78.
`O=C(NCSc1ccnc(SCNC(=O)c2ccc(F)cc2)n1)c1ccc(F)cc1` showed a z-score of -0.116.
Work on `CN(C)C(CNc1nnnn1-c1ccccc1)c1ccco1` (stereo not given) yielded a z-score of -2.3.
Molecule `Cc1cc(C)nc(NC(=O)CCCC(=O)O)c1` has a z-score of 0.294.
With `O=C(Nc1ccc(S(=O)(=O)Nc2cnc3ccccc3n2)cc1)c1ccc(Br)o1` the z-score was -0.111.
Work on `O=S(=O)(NC1c2cccc3cccc(c23)C1Sc1ncccn1)c1ccc(Cl)cc1` (stereo not given) yielded a z-score of -0.0393.
`O=C(/C=C/c1ccco1)NC(=S)Nc1cccc([N+](=O)[O-])c1` gave a z-score of 0.192.
`COc1ccccc1C(=O)N(Cc1nc(-c2ccc(Cl)cc2)no1)C(C)C` gave a z-score of 0.313.
`Cc1ccc(NC(=O)c2c(Cl)n(C)c3ccccc23)cc1` showed a z-score of -0.377.
`CC(CCc1ccco1)NC(=O)Cn1ncc2c1-c1ccccc1OC2` (stereo not given) was tested, and the z-score was -0.321.
`COc1cccc(C(=O)CSc2nnnn2C2CCCCC2)c1` was tested, and the z-score was -0.109.
`OCCN(Cc1ccccc1)Cc1cccc(F)c1` gave a z-score of -0.464.
Work on `Cc1ccc(Cn2c(CN3CCOCC3)nc3c2c(=O)n(C)c(=O)n3C)cc1` yielded a z-score of 0.276.
Molecule `O=C(Cn1c(=O)oc2ccccc21)NC(=O)NCc1ccccc1` has a z-score of -0.0542.
`CC(C)(C)c1ccc(COn2c(=O)c(-c3ccco3)[n+]([O-])c3ccccc32)cc1` showed a z-score of -0.289.
`O=C(COC(=O)c1cncc(Br)c1)NC1CC1` showed a z-score of -0.0374.
`O=C1CCCc2ccccc2N1Cc1cccc(Cl)c1` was tested, and the z-score was -0.324.
For `CCn1c(=O)cc(SCC(=O)N2CCOCC2)c2ccccc21`, the z-score was -0.0136.
`CN1CCN(C(=O)c2ccccc2NC(=O)C(C)(C)C)CC1` gave a z-score of -0.356.
`COc1ccc(-c2cc(C(F)(F)F)n3ncc(C(=O)NCc4ccco4)c3n2)cc1` gave a z-score of -0.0428.
Work on `Cc1nn(CC(=O)N(C)C)c(=O)c2ccccc12` yielded a z-score of -0.39.
For `Cn1c(NCC(O)c2ccccc2)nc2c1c(=O)n(Cc1ccc(Cl)c(Cl)c1)c(=O)n2C` (stereo not given), the z-score was -0.203.
`COC(=O)Cc1c(C)nc2nc(-c3ccccc3)[nH]n2c1=O` showed a z-score of -0.455.
`Nc1nc(C(=O)N2CCOCC2)nn1S(=O)(=O)c1ccc(Cl)cc1` showed a z-score of 0.299.
`O=C(OC1CCOC1=O)c1ccc(-c2nc3ccccc3s2)s1` (stereo not given) showed a z-score of -0.0104.
`Cc1nn(C)cc1CNC(=O)c1ccc(Br)o1` gave a z-score of 0.842.
With `CCC(=O)NC1(C(F)(F)F)C(=O)NC(C)=C1C#N` (stereo not given) the z-score was -0.261.
In the case of `COCCCn1c(-c2ccco2)nc2ccccc2c1=O`, the z-score is reported as 1.93.
In the case of `CCc1ccc(C(=O)COC(=O)c2cccs2)cc1`, the z-score is reported as 0.161.
Molecule `COC(=O)c1ccc(NC(=O)CSCC(=O)OCC(=O)c2ccc(Br)cc2)cc1` has a z-score of 0.0299.
With `CN(Cc1ccccc1)c1nc2c(c(=O)[nH]c(=O)n2C)n1CCSc1nc2ccccc2[nH]1` the z-score was 0.103.
`CCOC(=O)CSc1ccc(-c2nc3ccccc3[nH]2)cn1` was tested, and the z-score was -0.14.
`CC(C)(C)c1ccc(C(=O)NCc2cccnc2)cc1` gave a z-score of 0.116.
Molecule `Cc1ccc2cccc(NC(=S)NC(=O)c3ccnn3C)c2n1` has a z-score of 2.25.
In the case of `COc1ccc(C2C(C#N)=C(/N=C/N3CCN(C)CC3)OC3=C2C(=O)CC(C)(C)C3)cc1` (stereo not given), the z-score is reported as 0.796.
`Cc1ccc(S(=O)(=O)Oc2ccc(/C=N/NC(=O)c3c(Cl)cnn3C)cc2)cc1` gave a z-score of 1.89.
`COC(=O)c1cn(CC(=O)N2CCCCC2C)c2ccccc12` (stereo not given) was tested, and the z-score was -0.213.
Work on `O=C(OCC#CCSc1nnc(-c2ccncc2)o1)c1cccs1` yielded a z-score of -0.0957.
`O=C(CSc1nnnn1-c1cccc2c1CCCC2)N1CCOCC1` gave a z-score of 0.398.
In the case of `CCOc1ccc(NC(=O)CSc2nnc(Cn3cnc([N+](=O)[O-])n3)n2C)cc1`, the z-score is reported as -0.0324.

Reference: PubChem BioAssay AID488969 (Vanderbilt High Throughput Screening Facility, 2010)
